{"source": "the supplement of paper PMC8728848", "assay_in_all_cases": "glycan array binding signal (z-score within array); higher = stronger binding", "conditions_in_all_cases": "glycan notation: IUPAC condensed, linker removed", "key": {"[1]": {"system": "GlcNAc(b1-3)[GlcNAc(b1-6)]GalNAc", "how_it_was_run": "(§1)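 Glycan array data were curated from 3228 arrays in the Consortium for Functional Glycomics database and kept only where the protein sequence was available. Glycan names were converted to IUPAC-condensed notation, and columns mapping to the same glycan were averaged. The binding signal is a within-array Z-score, averaged across arrays of the same protein sequence at different concentrations or buffers and across linkers. Negative Z-scores can be read as non-binding.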"}, "[2]": {"system": "GlcNAc(b1-3)[GlcNAc(b1-6)]GlcNAc(b1-4)GlcNAc", "how_it_was_run": "as §1"}, "[3]": {"system": "GlcNAc(b1-3)[GlcNAc(b1-6)]GlcNAc", "how_it_was_run": "as §1"}, "[4]": {"system": "GlcNAc(b1-4)Gal(b1-4)GlcNAc", "how_it_was_run": "as §1"}, "[5]": {"system": "GlcNAc(b1-4)GlcNAc(b1-4)GlcNAc(b1-4)GlcNAc(b1-4)GlcNAc(b1-4)GlcNAc", "how_it_was_run": "as §1"}, "[6]": {"system": "GlcNAc(b1-4)GlcNAc(b1-4)GlcNAc(b1-4)GlcNAc(b1-4)GlcNAc", "how_it_was_run": "as §1"}, "[7]": {"system": "GlcNAc(b1-4)GlcNAc(b1-4)GlcNAc", "how_it_was_run": "as §1"}, "[8]": {"system": "GlcNAc(b1-6)Gal(b1-4)GlcNAc", "how_it_was_run": "as §1"}, "GlcNAc(b1-6)GalNAc": {"system": "GlcNAc(b1-6)GalNAc", "how_it_was_run": "as §1"}}, "note": "This is one part of a sample in which the strongest signals are shown more often than they occur."}
{"substance": "Meso764 (Homo sapiens) (chain not printed)", "values": [{"measurement": "glycan array binding signal (z-score)", "setting": "[1]", "value": -0.549}]}
{"substance": "CLEC-2 (Homo sapiens) (chain not printed)", "values": [{"measurement": "glycan array binding signal (z-score)", "setting": "[2]", "value": -0.444}]}
{"substance": "STIM-3 (Mus musculus) (chain not printed)", "values": [{"measurement": "glycan array binding signal (z-score)", "setting": "[3]", "value": -0.861}]}
{"substance": "Gal 8-short (Homo sapiens) (chain not printed)", "values": [{"measurement": "glycan array binding signal (z-score)", "setting": "[4]", "value": -0.792}]}
{"substance": "M-Ficolin Y271F (Homo sapiens) (chain not printed)", "values": [{"measurement": "glycan array binding signal (z-score)", "setting": "[5]", "value": -0.619}]}
{"substance": "Serum Amyloid P component (Homo sapiens) (chain not printed)", "values": [{"measurement": "glycan array binding signal (z-score)", "setting": "[6]", "value": -0.303}, {"measurement": "glycan array binding signal (z-score)", "setting": "[7]", "value": 0.984}]}
{"substance": "Collectin K1 (Homo sapiens) (chain not printed)", "values": [{"measurement": "glycan array binding signal (z-score)", "setting": "[7]", "value": -0.218}]}
{"substance": "L-Ficolin (Homo sapiens) (chain not printed)", "values": [{"measurement": "glycan array binding signal (z-score)", "setting": "[8]", "value": 3.31}]}
{"substance": "M-Ficolin G221F (Homo sapiens) (chain not printed)", "values": [{"measurement": "glycan array binding signal (z-score)", "setting": "GlcNAc(b1-6)GalNAc", "value": -0.17}]}
{"substance": "MBP (Homo sapiens) (chain not printed)", "values": [{"measurement": "glycan array binding signal (z-score)", "setting": "GlcNAc(b1-6)GalNAc", "value": 0.119}]}
